Measured values published in article PMC9911399, “Two distinct binding modes provide the RNA-binding protein RbFox with extraordinary sequence specificity”.
Residue numbers refer to the chain shown, from its start. This is one part of the list.

B1: AACUCUU (DNA:RNA)
RNA: GGGAGACCGGAAUUCAGAUUGUCCAACUCUUUUAAAUCCCGUCGUAGCCACCA
DNA 1: CAATCTGAATTCCGGTCTCCC
DNA 2: TGGTGGCTACGACGGGATT
B2: CCCGAUA (DNA:RNA)
RNA: B1 RNA with A25C, A26C, U28G, C29A, U31A
DNA 1: CAATCTGAATTCCGGTCTCCC
DNA 2: TGGTGGCTACGACGGGATT
B3: UGAUUGC (DNA:RNA)
RNA: B1 RNA with A25U, A26G, C27A, C29U, U30G, U31C
DNA 1: CAATCTGAATTCCGGTCTCCC
DNA 2: TGGTGGCTACGACGGGATT
B4: CCCGACG (DNA:RNA)
RNA: B1 RNA with A25C, A26C, U28G, C29A, U30C, U31G
DNA 1: CAATCTGAATTCCGGTCTCCC
DNA 2: TGGTGGCTACGACGGGATT
B5: UGACAUC (DNA:RNA)
RNA: B1 RNA with A25U, A26G, C27A, U28C, C29A, U31C
DNA 1: CAATCTGAATTCCGGTCTCCC
DNA 2: TGGTGGCTACGACGGGATT
B6: GGUUCAC (DNA:RNA)
RNA: B1 RNA with A25G, A26G, C27U, U30A, U31C
DNA 1: CAATCTGAATTCCGGTCTCCC
DNA 2: TGGTGGCTACGACGGGATT
B7: GAGACUG (DNA:RNA)
RNA: B1 RNA with A25G, C27G, U28A, U31G
DNA 1: CAATCTGAATTCCGGTCTCCC
DNA 2: TGGTGGCTACGACGGGATT
B8: CGUUACU (DNA:RNA)
RNA: B1 RNA with A25C, A26G, C27U, C29A, U30C
DNA 1: CAATCTGAATTCCGGTCTCCC
DNA 2: TGGTGGCTACGACGGGATT
B9: ACCCUCC (DNA:RNA)
RNA: B1 RNA with A26C, U28C, C29U, U30C, U31C
DNA 1: CAATCTGAATTCCGGTCTCCC
DNA 2: TGGTGGCTACGACGGGATT

Target: T1, RBFOX1 RRM RbFoxmut (Fox-RRM*) (Homo sapiens, UniProt Q9NWB1 109-208, R118D;E147R;N151S;E152T)
T1 sequence: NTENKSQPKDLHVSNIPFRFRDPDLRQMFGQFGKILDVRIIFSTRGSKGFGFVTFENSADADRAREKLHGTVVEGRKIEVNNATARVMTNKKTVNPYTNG
Experiment: EMSA; HiTS-Eq, 1 nM pool, 10 min; buffer printed only for the single-RNA assays: 10 mM Tris pH 7.5, 150 mM NaCl, 3.4 mM EDTA, 0.001% NP-40, 30 C
Conditions: tags: His6 N-terminal (pET28a); label: 5' 32P
Summary of the method: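 Purified RbFox RRM, wild type or mutant, was incubated for 10 min in 50 µL with 1 nM of a 5′-radiolabelled RNA pool carrying 7 randomized nucleotides, whose flanks were annealed to DNA oligonucleotides, over a series of increasing protein concentrations. Unbound RNA was resolved on 8% native PAGE, cut out, reverse-transcribed, barcoded by PCR and sequenced on an Illumina HiSeq 2500. Relative association constants were derived from changes in read counts for each RNA species versus the control reaction and normalised to the cognate motif.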

Binder | binding signal
B1 | 0.075 KA relative to UGCAUGU
B2 | 0.0935 KA relative to UGCAUGU
B3 | 0.189 KA relative to UGCAUGU
B4 | 0.107 KA relative to UGCAUGU
B5 | 0.147 KA relative to UGCAUGU
B6 | 0.0895 KA relative to UGCAUGU
B7 | 0.181 KA relative to UGCAUGU
B8 | 0.0985 KA relative to UGCAUGU
B9 | 0.0466 KA relative to UGCAUGU
